Measurements reported in paper PMC4336329 (PLoS ONE, 2015).
Among all 310,000 compounds or so, about 14,000 (4.5%) showed an effect of 50% or more. The effect is printed as a negative number. The list shows a part of the results.

The compounds below were run against human ether-à-go-go-related gene (hERG) potassium channel (human, UniProt Q12809) (assay: primary screen, population patch clamp on CHO cells stably expressing hERG).
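Note: peak tail current of the secondary pulse compared with the same well before compound.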

human ether-à-go-go-related gene (hERG) potassium channel, sequence (Q12809 whole entry, looked up): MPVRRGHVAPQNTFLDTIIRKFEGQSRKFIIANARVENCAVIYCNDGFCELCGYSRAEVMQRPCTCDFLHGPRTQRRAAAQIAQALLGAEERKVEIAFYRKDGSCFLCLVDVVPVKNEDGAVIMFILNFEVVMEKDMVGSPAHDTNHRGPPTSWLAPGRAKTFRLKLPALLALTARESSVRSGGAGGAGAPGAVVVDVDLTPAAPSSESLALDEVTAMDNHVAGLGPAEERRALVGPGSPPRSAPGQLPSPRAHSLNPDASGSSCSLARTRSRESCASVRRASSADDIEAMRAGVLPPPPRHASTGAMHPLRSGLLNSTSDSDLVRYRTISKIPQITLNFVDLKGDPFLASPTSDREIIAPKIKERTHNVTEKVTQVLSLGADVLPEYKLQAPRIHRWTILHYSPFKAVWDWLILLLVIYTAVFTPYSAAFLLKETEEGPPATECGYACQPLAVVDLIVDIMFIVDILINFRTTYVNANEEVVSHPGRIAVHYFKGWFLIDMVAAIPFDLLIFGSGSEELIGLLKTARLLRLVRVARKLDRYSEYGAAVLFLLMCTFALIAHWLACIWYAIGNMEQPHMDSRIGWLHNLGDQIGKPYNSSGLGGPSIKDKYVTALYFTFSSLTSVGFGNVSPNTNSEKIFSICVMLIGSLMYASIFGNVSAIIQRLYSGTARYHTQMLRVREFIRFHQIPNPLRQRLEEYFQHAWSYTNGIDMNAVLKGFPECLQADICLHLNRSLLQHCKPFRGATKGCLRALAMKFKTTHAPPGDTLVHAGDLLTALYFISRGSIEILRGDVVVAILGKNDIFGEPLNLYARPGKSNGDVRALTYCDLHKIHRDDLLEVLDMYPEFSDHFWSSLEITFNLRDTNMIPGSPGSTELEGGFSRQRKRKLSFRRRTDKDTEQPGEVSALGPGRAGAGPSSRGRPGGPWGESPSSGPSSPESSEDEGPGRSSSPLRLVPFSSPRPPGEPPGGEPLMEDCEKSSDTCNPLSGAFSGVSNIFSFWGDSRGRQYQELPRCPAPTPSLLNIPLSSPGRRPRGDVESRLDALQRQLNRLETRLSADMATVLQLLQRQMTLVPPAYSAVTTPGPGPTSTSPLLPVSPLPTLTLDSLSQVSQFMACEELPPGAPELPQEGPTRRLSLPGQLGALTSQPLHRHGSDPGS

In order of rising “hERG current change (%, negative = inhibition) at 10uM” value:
1. O=C(c1ccc2c(c1)OCO2)C1CCCN(Cc2ccc3cccc(F)c3n2)C1 (stereo not drawn)  -87%
2. O=C(Nc1ccccc1Oc1cccnc1)C1CCCN(C/C=C/c2ccc(F)cc2)C1 (stereo not drawn)  -76.9%
3. Cc1ccc(C(=O)N/C(=C\c2ccc(Cl)cc2)C(=O)NCCN2CCOCC2)cc1  -75.1%
4. Cc1cc(NCc2ccco2)nc(N2CCC(C(=O)NC3CCCCC3)CC2)n1  -71.1%
5. COc1ccc(-c2[nH]ncc2CN2CCCC(C(=O)c3cccc(OC)c3)C2)cc1 (stereo not drawn)  -67.3%
6. O=C1Nc2ccc(Br)cc2C(c2ccc(Cl)cc2)=NC1O (stereo not drawn)  -56.5%
7. COc1ccc(S(=O)(=O)NCC2CCCO2)c(Cl)c1Cl (stereo not drawn)  -38.7%
8. CC(C)c1ccc(S(=O)(=O)/N=C2\C=C(NS(=O)(=O)c3ccccc3)C(=O)c3ccccc32)cc1  -29.5%
9. COc1ccc(N(CC(=O)Nc2ccccc2F)S(=O)(=O)c2ccc(OC)c(OC)c2)cc1  -24.2%
10. O=c1[nH]c(CN2CCNCC2)nc2ccccc12  -23.4%
11. O=C(Cc1ccccc1)NC(NCCc1ccccc1)C(Cl)(Cl)Cl (stereo not drawn)  -20%
12. CC1CCCCN1S(=O)(=O)c1ccc(S(=O)(=O)NCCc2ccncc2)cc1 (stereo not drawn)  -19.1%
13. O=C(CSc1nnc(SCC(=O)c2ccco2)s1)c1ccco1  -18.8%
14. C[C@@H](NC(=O)c1nc[nH]c1C(=O)NCC(=O)OCc1ccccc1)c1ccccc1  -16.6%
15. CCCCC(=O)NC(NC(=O)CCCC)c1ccc(OCCC)c(OC)c1  -15.3%
16. Cc1cc(C)n2ncc(C(=O)NCc3ccc(Cl)cc3)c2n1  -14.9%
17. COc1ccc(N(CC(=O)N/N=C(\C)c2cccs2)S(=O)(=O)c2ccccc2)cc1Cl  -14.6%
18. Cc1ccc(S(=O)(=O)C(C#N)c2nc3ccccc3nc2N2CCN(C)CC2)cc1C (stereo not drawn)  -9.18%
19. O=C1CN(c2nc3ccccc3n3cnnc23)CC(=O)N1CCc1ccccc1  -8.65%
20. Cc1nc(C)c(-c2nnc(-c3ccc(C(C)(C)C)cc3)o2)cc1C(=O)NN  -6.75%
21. Cc1cc(S(=O)(=O)N(Cc2ccc(C(C)C)cc2)CC2CCCO2)ccc1-n1cnnn1 (stereo not drawn)  -6.44%
22. CCOC(=O)Cc1csc(NC(=O)CSc2nc(C)cc(=O)[nH]2)n1.Cl  -5.94%
23. CC(C(=O)NCc1cccs1)N1C(=O)c2ccccc2C1=O (stereo not drawn)  -5.43%
24. OCC[NH+](CCO)CC(O)COc1ccc(Br)cc1.[Cl-] (stereo not drawn)  -5.17%
25. CCCn1cnc2c1c(=O)n(CCCCC(C)=O)c(=O)n2C  -4.29%
26. C=CCn1c(SCC(=O)c2ccc(Br)cc2)nnc1C(CC(C)C)NC(=O)c1cccs1 (stereo not drawn)  -3.88%
27. O=C(Cn1c(CO)nc2ccccc21)NCCc1ccc(F)cc1  -3.46%
28. Cc1ccc(SCC(=O)OCC(=O)NCCc2ccccc2)cc1C  -2.77%
29. CCn1ncc(Cl)c1C(=O)NC(=S)Nc1c(C)cc(C)cc1[N+](=O)[O-]  -0.873%
30. CC(NC(=O)c1ccc(S(=O)(=O)NCc2ccco2)cc1)c1ccc(F)cc1 (stereo not drawn)  1.15%
31. COc1ccccc1C1C(C(C)=O)=C(C)N=c2s/c(=C\c3cc(OC)c(OC)c(OC)c3)c(=O)n21 (stereo not drawn)  2.96%
32. C=CCN(C(=O)Nc1ccc2c(c1)nc(C)n2C)c1ccccc1  3.69%
33. COc1ccc(Nc2nc(-c3cccs3)cs2)c(OC)c1  4.09%
34. Cc1ccc(SCC(=O)OCC(=O)NCc2cccs2)cc1  5.8%
35. COC(=O)c1cc2oc(C)cc2n1CC(=O)Nc1ccc(C)c(C)c1  6.32%
36. Cc1cc(=O)[nH]c2ccc(S(=O)(=O)N3CCOCC3)cc12  8.33%
37. O=C(NC(=S)Nc1cc(Cl)ccc1N1CCOCC1)c1ccc(-c2cccc(Cl)c2)o1  8.91%
38. Cc1ccc(S(=O)(=O)NC(C)(C)CSc2nncn2N)cc1  9.75%
39. Cc1cc(OCc2nc(-c3ccncc3)no2)cc(C)c1Cl  10.3%
40. Cc1cc(C)n2ncc(C(=O)Nc3cccc(O)c3)c2n1  10.5%
41. O=C(O)c1ccc(C(=O)c2ccc3c(c2)C(=O)N(Cc2ccco2)C3=O)cc1  11.7%
42. O=[N+]([O-])c1ccc(O)c(C=Nc2ccc3oc(Cc4ccc(Cl)cc4)nc3c2)c1  11.8%
43. CCN1CCN(C(=O)CCNC(=O)Cn2cnc3ccccc3c2=O)CC1  11.9%
44. COC(=O)c1ccccc1NC(=O)CSc1nccn1C  11.9%
45. O=C(COC(=O)CCCNC(=O)c1ccc(Cl)cc1)Nc1cc(Cl)c(Cl)cc1Cl  12.7%
46. COc1cc(NC(=O)c2cccc([N+](=O)[O-])c2)ccc1NC(=O)c1cc2ccccc2o1  15%
47. COc1ccccc1NC(=S)N/N=C/c1cccc(C)c1  15.4%
48. Cc1ccc(/C(O)=C2\C(=O)C(=O)N(CC(C)O)C2c2ccccn2)cc1 (stereo not drawn)  15.5%
49. CC(C)NC(=O)CN1C(=O)CSc2ccc(S(=O)(=O)N3CCCC3)cc21  15.6%
50. CN(CC(=O)Nc1ccccc1C(F)(F)F)C(=O)CSc1nc(N)cc(N)n1  16%
51. C=CCOCCN(C)C1=NS(=O)(=O)c2ccccc21.Cl  16%
52. CCOc1cc2[nH]c(=S)n(CCCC(=O)N3CCC4(CC3)OCCO4)c(=O)c2cc1OCC  16.2%
53. COc1ccc(C(=O)N/N=C/c2ccc(OC)c(COc3c(F)c(F)cc(F)c3F)c2)cc1  16.5%
54. CN(C)C=O.O=C(CNC(=O)C12CC3CC(CC(C3)C1)C2)N1CCN(S(=O)(=O)c2cccs2)CC1  23.3%
